# Data taken from paper PMC6212790.
# The list shows a part of the results. At the low end of the ranking, values are background and their order means little.
# Target: T1, GST-Rok-C97-191 (UniProt O34857)
# T1 sequence: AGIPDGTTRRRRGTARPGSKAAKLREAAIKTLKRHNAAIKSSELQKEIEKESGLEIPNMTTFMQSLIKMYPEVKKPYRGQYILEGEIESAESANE
# Assay: protein binding microarray;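 further: rank score from −0.5 (least bound) to 0.5 (best bound)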
# Conditions: Rok is a gene silencer of Bacillus subtilis; high values mean tight binding; most listed sequences are background and not binding sites; double strand, one strand shown
row,Sequence,binding signal
1,ATAGTCAC,-0.0193 E-score
2,AATACCGG,0.266 E-score
3,CGGGACTC,-0.166 E-score
4,TCCCACAA,0.0517 E-score
5,AAACGCCA,-0.0367 E-score
6,AAAGCATC,-0.231 E-score
7,AGATAGCA,0.148 E-score
8,CACCGAGC,-0.0689 E-score
9,AATCCCAT,0.0708 E-score
10,CAGTGGCG,-0.125 E-score
11,CGGTAAGA,-0.0738 E-score
12,ATAACGGC,0.0469 E-score
13,CTTTGCAA,-0.0434 E-score
14,ATCTCGGC,-0.174 E-score
15,TCGGGAAA,-0.0763 E-score
16,ATGGAGGC,-0.123 E-score
17,GCGAACCC,-0.221 E-score
18,AAATTATA,0.389 E-score
19,CATAAGGA,-0.0502 E-score
20,CGGCAATA,0.0655 E-score
21,ACGTCATA,0.0678 E-score
22,CGTGCAGC,-0.0438 E-score
23,GAAGTATC,0.233 E-score
24,AGAGCGAT,-0.0668 E-score
25,CGGCCACA,-0.185 E-score

row,Sequence,binding signal
1,GAAGCCGA,-0.0818 E-score
2,AGTAGCTG,0.233 E-score
3,GAATGCAC,-0.122 E-score
4,GCGGTCAA,-0.29 E-score
5,AATTCACC,0.0722 E-score
6,CACCTATG,-0.117 E-score
7,GTGTAGTA,0.305 E-score
8,AGCAAGGA,-0.0952 E-score
9,TATCATAA,0.205 E-score
10,AAGGTATT,0.122 E-score
11,AATAACCT,0.0611 E-score
12,ATGTACCC,0.0999 E-score
13,GGCGGTTA,-0.109 E-score
14,AGACGCCA,-0.268 E-score
15,CTTGCATA,0.142 E-score
16,GTAGCCAA,-0.12 E-score
17,TGCCCGAA,-0.117 E-score
18,CAAGATTC,-0.0861 E-score
19,CATCATAA,0.194 E-score
20,TGAATTCA,0.0937 E-score
21,CATACGGG,-0.173 E-score
22,CCCTTTTC,-0.189 E-score
23,CCGCCGCA,-0.252 E-score
24,AGCTCAAA,-0.00791 E-score
25,ACCTGGCA,-0.0345 E-score

row,Sequence,binding signal
1,CCGGCCCC,-0.345 E-score
2,AAGTCATG,0.0095 E-score
3,GCCCAGAC,-0.26 E-score
4,ACTGTTGA,0.0617 E-score
5,GAGTGAAA,-0.143 E-score
6,CTGTACAA,0.0696 E-score
7,ATGCCGCC,-0.224 E-score
8,CGATCTCA,-0.251 E-score
9,ATTACGCC,-0.0244 E-score
10,CTGAGGTC,-0.226 E-score
11,TAGCGAAA,0.164 E-score
12,GCACCCGA,-0.18 E-score
13,CTGGGCCA,-0.181 E-score
14,CCATGAGC,-0.206 E-score
15,GTGGGCTA,-0.197 E-score
16,CACTTTTC,0.0461 E-score
17,ATATGAAC,0.142 E-score
18,AGTGTAAC,0.00886 E-score
19,CCGGTTTA,-0.0155 E-score
20,GGCGGCTA,-0.0852 E-score
21,GCTTAAGC,-0.268 E-score
22,GTGAACTA,0.214 E-score
23,ACTGGTAT,0.149 E-score
24,CTCATTGA,-0.1 E-score
25,ACACTTGC,-0.0396 E-score

row,Sequence,binding signal
1,CTATTGTA,0.355 E-score
2,ATAAGCTC,-0.0268 E-score
3,GTTACCGA,0.0867 E-score
4,GAACGCCC,-0.158 E-score
5,CAGAGTAG,-0.109 E-score
6,AAGACATG,-0.143 E-score
7,AGAATGAT,0.217 E-score
8,CGGCTCCC,-0.334 E-score
9,AACCCGTT,-0.048 E-score
10,GTAACGAC,0.157 E-score
11,TCCATGCA,-0.0603 E-score
12,GCGAGATA,0.0526 E-score
13,AATCAAAT,0.00045 E-score
14,AAAATATC,0.186 E-score
15,AACGGACA,-0.0656 E-score
16,CTACCCGA,-0.0404 E-score
17,CATGTCAA,-0.0291 E-score
18,CGACCAAA,-0.039 E-score
19,CCGAATAC,0.125 E-score
20,AACATTCA,-0.00134 E-score
21,CGACGTGC,-0.187 E-score
22,AATCACCC,-0.115 E-score
23,CAGGGCGA,-0.302 E-score
24,AACCGATT,0.11 E-score
25,CGTGACTA,-0.14 E-score

row,Sequence,binding signal
1,ATTCGGTC,0.134 E-score
2,CATTCTAC,0.384 E-score
3,GACAACAC,-0.0379 E-score
4,AAAAAAGA,-0.0705 E-score
5,GGTCCCGA,-0.0737 E-score
6,CCCGGAAC,-0.0153 E-score
7,AGTTTGGG,-0.0774 E-score
8,CGCCGACA,0.0406 E-score
9,TCCGGACA,0.0601 E-score
10,ATACGTAA,0.371 E-score
11,AACACTAT,0.297 E-score
12,ACTCGACA,-0.145 E-score
13,AACATCCG,0.0335 E-score
14,GCTACCCA,-0.092 E-score
15,ATTTGTGG,0.133 E-score
16,GTATTTCA,0.131 E-score
17,CTCCCGCA,-0.145 E-score
18,CCAACTAA,0.16 E-score
19,AATCATCA,0.0436 E-score
20,CACGTGCG,-0.226 E-score
21,CAAGCTGG,-0.212 E-score
22,GTACCGTA,0.0628 E-score
23,CGTCCCAC,-0.11 E-score
24,CCCTCTTA,-0.033 E-score
25,CAATAGTC,0.0177 E-score

row,Sequence,binding signal
1,ATGGTGGA,-0.0649 E-score
2,GGTCGAAC,-0.0654 E-score
3,AGAGGCCC,-0.295 E-score
4,CTCCGCGC,-0.247 E-score
5,CAATGTCG,0.0121 E-score
6,CACGGTTC,-0.296 E-score
7,GCCCGTTA,-0.182 E-score
8,CCTTCGCC,-0.176 E-score
9,CCTCGTAG,-0.0235 E-score
10,ACTTGAGC,0.191 E-score
11,CCCATCTC,-0.22 E-score
12,AGTTCGGC,-0.0233 E-score
13,CCTTGGTA,-0.0825 E-score
14,CAACACGA,-0.125 E-score
15,TGGCCGAA,-0.146 E-score
16,AAGTGTAT,0.272 E-score
17,CCTTTAGA,0.00553 E-score
18,CTAGCGAG,0.0237 E-score
19,CCAAGGCG,-0.315 E-score
20,TCAACAAA,-0.0444 E-score
21,CCGGCGGA,-0.304 E-score
22,CGGTGAGC,-0.166 E-score
23,ACCGTGAG,-0.0654 E-score
24,CACCTCAC,-0.145 E-score
25,ACTCCAGG,-0.249 E-score

row,Sequence,binding signal
1,ACCGCTCT,-0.2 E-score
2,CGATTCAA,0.023 E-score
3,GACTCGCC,-0.192 E-score
4,ACGTATTC,0.168 E-score
5,GGAGTACC,-0.103 E-score
6,CGGTTGCA,-0.0914 E-score
7,ATCTCCCA,-0.042 E-score
8,ATGAGCAC,-0.1 E-score
9,GCTTCCAA,-0.00693 E-score
10,AGTTTCTG,0.0882 E-score
11,TAGGGACA,-0.111 E-score
12,CATATATG,0.306 E-score
13,AAATACGC,0.142 E-score
14,TGCGGAAA,0.0934 E-score
15,GTAGATGA,0.166 E-score
16,ATGTACTG,0.0512 E-score
17,AAGATCGT,0.037 E-score
18,AGAACTAA,0.259 E-score
19,GCTACTCC,-0.0352 E-score
20,CTCGTCTA,-0.0895 E-score
21,GTTCAGTA,0.213 E-score
22,GTAGGAAC,0.2 E-score
23,CATACATG,0.171 E-score
24,AGGACACC,-0.131 E-score
25,TCCAACGA,-0.196 E-score

row,Sequence,binding signal
1,CATGGATA,0.189 E-score
2,GGTCCAAC,-0.24 E-score
3,CTGCCCTA,-0.098 E-score
4,AAGGGCGA,-0.167 E-score
5,CAATCTCA,-0.00889 E-score
6,CCCCAAGC,-0.171 E-score
7,GGTCCCAC,-0.252 E-score
8,CAGAACTA,0.309 E-score
9,ACCCCTTC,-0.315 E-score
10,CCCCTACA,-0.175 E-score
11,AACTACAA,0.348 E-score
12,CCTCTCAA,-0.0855 E-score
13,ACATAGAC,0.0775 E-score
14,CTCGGCAC,-0.153 E-score
15,GCGTCCCA,-0.181 E-score
16,TGGGTCAA,-0.189 E-score
17,GTGAGAAA,0.0532 E-score
18,GACGACTA,0.146 E-score
19,AACAAGAA,0.00882 E-score
20,AAAAGACA,-0.0221 E-score
21,GAACATCA,0.0213 E-score
22,CATGGCTA,-0.081 E-score
23,CACTTCAC,0.0445 E-score
24,GTCGAGGA,-0.0836 E-score
25,GGATAAAA,0.168 E-score

row,Sequence,binding signal
1,CGATCCGA,-0.0349 E-score
2,CCTCACTC,-0.151 E-score
3,GGCCCAAA,-0.227 E-score
4,CACAGTAC,-0.0303 E-score
5,CGGGGATA,-0.0134 E-score
6,ATGAGGTC,-0.207 E-score
7,CATCCCAC,-0.272 E-score
8,ACCGACAC,0.0159 E-score
9,CCATCCGA,-0.132 E-score
10,AGTTAGAG,0.135 E-score
11,GGGTCCAC,-0.233 E-score
12,AAGCCCGC,-0.237 E-score
13,GGGATCTA,0.28 E-score
14,CTAGAGAA,0.31 E-score
15,TGCTGCCA,-0.222 E-score
16,CCTGTCCC,0.0167 E-score
17,AAGCGAAG,-0.0349 E-score
18,GCGTGACA,-0.23 E-score
19,AATGTACA,0.34 E-score
